In PubChem BioAssay AID1508642 (National Center for Advancing Translational Sciences (NCATS), 2021):
Out of some 43,000 compounds screened, about 200 (0.47%) were called active. Not shown: some 12% with an inconclusive outcome. The call rests on the fitted dose curve; in most records, active means well fitted cell-killing curve with a large enough effect; inconclusive means small, poorly fitted or top-dose-only effect, or effect the other way; inactive means flat fitted curve, though single readings scatter. The list shows a part of the results.

Experiment: Cell viability qHTS assay in S16 Pmp22-F2sN cells; further: nearly all actives have a fitted effect of over 65% in size
Conditions: S16 Pmp22-F2sN Schwann cells (luciferase reporters placed in the Pmp22 gene) viability, CellTiter-Glo, 24 h; series mostly up to 57.5 µM; activity change, negative = cytotoxicity: at the top concentration
Summary of the method: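 Rat S16 Schwann reporter line, 24 h treatment with library compounds delivered at 23 nL per well. Cell viability by CellTiter-Glo luminescence.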
On the % scale 0 is the no-effect control and ±100 the full control effect.

| Structure (SMILES) | activity change, negative = cytotoxicity |
| --- | --- |
| O=C(Nc1ccc(Br)cc1)C1CCCN1S(=O)(=O)c1ccc(F)cc1 (stereo not given) | inactive: -2.57% |
| COc1ccc(CNC(=O)c2oc3c(c2C)-c2nn(Cc4ccc(Cl)cc4)cc2CC3)cc1 | inactive: -16.5% |
| Cc1ccc(CNC(=O)CNS(=O)(=O)c2cccs2)cc1 | inactive: -14.4% |
| Cc1ccc(NC(=O)C2CCN(c3nn4cc(-c5ccc(C)cc5)nc4s3)CC2)cc1 | inactive: -1.09% |
| CCN(c1ccccc1)S(=O)(=O)c1nnc(NC(=O)COc2cccc(C)c2)s1 | inactive: -4.31% |
| Cc1cccn2c(=O)c(C(=O)NC(C)c3ccccc3)cnc12 (stereo not given) | inactive: -0.741% |
| Cc1ccc(OCc2nc(-c3ccc(C(=O)NCc4ccc(OC(C)C)cc4)cc3)oc2C)cc1 | inactive: 4.62% |
| CCN(C(=O)c1cc2c(=O)oc3ccc(C)cc3c2s1)c1ccccc1C | inactive: -3.58% |
| Cc1cc(C)cc(N2C(=O)N(Cc3cccc(F)c3)c3ccccc3S2(=O)=O)c1 | inactive: -4.9% |
| Cc1ccc(C(=O)c2cn(Cc3ccc(Cl)cc3)c3nc(C)ccc3c2=O)cc1 | inactive: 5.94% |
| COc1ccc(N2CCN(C(=O)CSc3n[nH]c(-c4ccccc4Cl)n3)CC2)cc1 | inactive: 16.8% |
| Cc1ccc(C)c(CN2C(=O)c3ccccc3S(=O)(=O)c3ccc(C(=O)NCCC4=CCCCC4)cc32)c1 | inactive: -9.38% |
| Cc1cc(C)c(NC(=O)C(C)n2nnc3sc4c(c3c2=O)CCCC4)c(C)c1 (stereo not given) | inactive: 12.1% |
| COc1ccc(Nc2oc(-c3ccc(COc4ccccc4C)o3)nc2C#N)cc1 | inactive: 1.79% |
| CCOc1ccc(N(C)S(=O)(=O)c2ccc3[nH]cc(C(=O)NCc4ccccc4)c(=O)c3c2)cc1 | inactive: -2.01% |
| Cc1cccc(-c2noc(-c3ccc(N4CCOCC4)c([N+](=O)[O-])c3)n2)c1 | inactive: 2.8% |
| CC1CCN(S(=O)(=O)c2ccc3c(ccc(=O)n3CC(=O)Nc3cccc(F)c3)c2)CC1 | inactive: 1.35% |
| O=C(Nc1cnc(N2CCN(c3ccccc3)CC2)c(C(=O)O)c1)c1cccs1 | inactive: 0.0615% |
| Cc1ccc(NC(=O)c2cc(S(=O)(=O)NCCc3ccc(Cl)cc3)ccc2F)cc1 | inactive: -17.6% |
| CC(C)(C)C1CCc2oc3ccc(NS(=O)(=O)c4ccc(C(=O)O)cc4)cc3c2C1 (stereo not given) | inactive: 6.77% |
| COc1ccc(Cn2c(SCC(=O)N(C)Cc3ccccc3)nc3ccccc32)cc1 | inactive: -26.2% |
| Cc1ccc(NC(=O)Cn2c(=O)nc(-c3ccccc3)c3ccccc32)cc1F | inactive: 6.22% |
| COc1ccc(C2N=C(N)Nc3nc4ccccc4n32)cc1 (stereo not given) | inactive: 0.28% |
| CC1CCCCN1C(=O)c1cc(-c2ccc(Br)cc2)on1 (stereo not given) | inactive: 0.016% |

| Structure (SMILES) | activity change, negative = cytotoxicity |
| --- | --- |
| Cc1csc2nc(COc3cccc(NC(=O)c4ccccc4F)c3)cc(=O)n12 | inactive: 0.777% |
| Cc1nn(CC(=O)N2CCN(c3ccc(Cl)cc3)CC2)c(=O)c2cccn12 | inactive: 10.7% |
| COc1ccc(OCC(O)Cn2c(NCCO)nc3c2c(=O)n(C)c(=O)n3C)cc1 (stereo not given) | inactive: -1.26% |
| CCOC(=O)CSc1nc2c(sc3ccccc32)c(=O)n1CCO | inactive: 6.77% |
| COc1ccccc1CNC(=O)c1cn(C)c2ccc(S(=O)(=O)N(C)C3CCCCC3)cc2c1=O | inactive: -0.747% |
| Cc1ccc(NC(=O)CSc2cn(CC(=O)N3CCCC3)c3ccccc23)cc1Cl | inactive: -14.7% |
| CCOc1ccc(NS(=O)(=O)c2ccc3c(c2)CCCN3C(=O)C2CCC2)cc1 | inactive: -15.1% |
| O=C(CSc1nc2c([nH]c3ccccc32)c(=O)n1-c1ccc(Cl)cc1)c1ccccc1 | inactive: -4.19% |
| Cc1ccc2nc(COc3ccccc3NC(=O)c3ccc(F)cc3)cc(=O)n2c1 | inactive: -0.623% |
| Cc1ccc2c(=O)cc(C(=O)Nc3ccc(S(=O)(=O)Nc4ncccn4)cc3)oc2c1C | inactive: 7.36% |
| Cc1cc(C)c(NC(=O)C2CCN(c3nn4c(=O)cc(C)nc4s3)CC2)c(C)c1 | inactive: 6.22% |
| COc1ccc(NCc2cccn2-c2nnc(N3CCCCC3)s2)cc1OC | inactive: 9.4% |
| O=C(CSC1=Nc2ccccc2N=C(c2ccc(F)cc2)C1)Nc1ccccc1 | inactive: 25.6% |
| CCOc1ccc(NC(=O)c2c(NC(=O)Cc3ccccc3)sc3c2CCCCC3)cc1 | inactive: -21.4% |
| Cc1ccc(-n2c(=O)c3c(c4cc(C)ccc4n3C)n(CC(=O)N3CCCC3)c2=O)cc1 | inactive: 17.7% |
| CCOCCCN1C(=O)c2ccccc2CC1(C)C(=O)NC1CCCCC1 (stereo not given) | inactive: 9.21% |
| COC(=O)c1ccccc1NC(=O)c1sc2nc(C)cc(C)c2c1NC(=O)c1ccccc1OC | inactive: -11.9% |
| Cc1noc(C)c1S(=O)(=O)N(CC(=O)NCCc1ccccc1)c1ccc(C(C)C)cc1 | inactive: -0.664% |
| COc1cc(-c2nc(Cn3nnc(C(=O)Nc4cccc(Cl)c4)c3C)c(C)o2)cc(OC)c1OC | inactive: 21.3% |
| Cc1ccc(-c2cn3c(n2)sc2cc(C(=O)NCCC4=CCCCC4)ccc23)cc1 | inactive: 15.9% |
| COc1ccc(NC(=O)CSc2nc3c(oc4ccccc43)c(=O)n2Cc2ccco2)cc1Cl | inactive: -18.1% |
| COc1ccc(/C=C/C(=O)Nc2nc(-c3cccs3)ns2)cc1 | inactive: 9.05% |
| CC1CCN(S(=O)(=O)c2nnc(NC(=O)c3cccc(Cl)c3)s2)CC1 | inactive: -16.7% |
| COc1ccc2nc(N(Cc3cccnc3)C(=O)Cc3ccccc3)sc2c1 | inactive: -3.5% |

| Structure (SMILES) | activity change, negative = cytotoxicity |
| --- | --- |
| CC(=O)N1CCc2cc(S(=O)(=O)C(C)CC(=O)Nc3ccc(Br)c(C)c3)ccc21 (stereo not given) | inactive: 0.619% |
| CCc1cccc(-n2c(=O)c3cccnc3n2CC(=O)Nc2c(C)cc(C)cc2C)c1 | inactive: -9.56% |
| COc1cc(S(=O)(=O)NCCc2c(C)[nH]c3ccccc23)c(C)cc1C | inactive: -8.19% |
| COc1ccccc1CNC(=O)CN1C(=O)COc2ccc(S(=O)(=O)NC3CCCC3)cc21 | inactive: -5.69% |
| Cc1cccc(-n2c(CNC(=O)c3cccc(F)c3)nnc2SCC(=O)Nc2ccccc2F)c1 | inactive: 1.85% |
| CC1CCN(CC2CCN(C(=O)Nc3ccc(Br)cc3F)CC2)CC1 | inactive: -5.43% |
| CC(=O)Nc1ccc(S(=O)(=O)NC2=NCN(CCO)CN2)cc1 | inactive: 1.74% |
| COc1ccc(NC(=O)C2=C(C)Nc3ncnn3C2c2cccn2C)cc1 (stereo not given) | inactive: 17.4% |
| Fc1cccc(-c2nnn3c2nc(NC2CCCCC2)c2ccccc23)c1 | inactive: 9.13% |
| Cc1ccc(S(=O)(=O)c2nnn(-c3ccc(F)c(Cl)c3)c2N)cc1 | inactive: -13% |
| COC(=O)c1ccccc1NC(=O)C1=CC(c2cccs2)=NS(=O)(=O)N1C | inactive: 0.615% |
| COc1ccc(-n2nc3cc(C)c(NC(=O)c4ccc(-c5ccc(Cl)cc5)o4)cc3n2)cc1 | inactive: 4.45% |
| Cc1cc(OCC(=O)Nc2cc(-c3nc4ncccc4o3)ccc2C)ccc1Cl | inactive: 8.97% |
| COc1ccc(OCc2ccc(-c3nc(C#N)c(NC(C)c4ccccc4)o3)o2)cc1 (stereo not given) | inactive: -1.58% |
| CCOc1ccc2nc(N3CCCC(C(=O)NCCc4ccc(OCC)c(OCC)c4)C3)sc2c1 (stereo not given) | inactive: 9.6% |
| Cc1cccc(C)c1Nc1c(-c2ccccn2)nc2c(C)cccn12 | inactive: -13.6% |
| Cc1nn(CC(=O)Nc2ccc(OC(F)(F)F)cc2)c(=O)c2c(C)n(-c3ccc(Cl)cc3)nc12 | inactive: -8.72% |
| COc1ccc(-c2csc3ncnc(Nc4cccc(OC)c4)c23)cc1 | inactive: -0.457% |
| CSc1cccc(NC(=O)Nc2ccccc2OCc2cc(=O)n3cc(C)ccc3n2)c1 | inactive: -0.0272% |
| CCOCCCNC(=O)c1ccc(-n2c(-c3ccccc3)cc3c2CCC(C)C3)cc1 (stereo not given) | inactive: -2.92% |
| O=C(Cc1cccs1)NC1CC(=O)N(c2ccc(F)cc2)C1 (stereo not given) | inactive: 11.2% |
| COc1ccc(NC(=O)CCNS(=O)(=O)c2ccc3c(c2)CCCC(=O)N3)cc1Cl | inactive: -7.52% |
| O=C(NCc1ccc(Cl)cc1)NCc1noc2ccccc12 | inactive: -1.03% |
| CCc1ccc(S(=O)(=O)Nc2ccc3c(c2)n(C)c(=O)c(=O)n3C)cc1 | inactive: 1.86% |

| Structure (SMILES) | activity change, negative = cytotoxicity |
| --- | --- |
| Cc1ccc2c(c1)C(c1ccc(F)cc1)N(C(=O)c1ccc(S(=O)(=O)N3CCCCC3)cc1)CC(=O)N2 (stereo not given) | inactive: -26.4% |
| COc1ccc(C(=O)Nc2ccc3nc(SCC(=O)N4CCc5ccccc54)sc3c2)cc1 | inactive: 21.4% |
| Cc1ccc(S(=O)(=O)n2nc(-c3ccc(Cl)cc3)nc2NCc2ccc(F)cc2)cc1 | inactive: -0.396% |
| Cc1cc(C)c2c(CC(=O)Nc3ccc(S(=O)(=O)Nc4nc(C)cc(C)n4)cc3)coc2c1 | inactive: -3.4% |
| COc1ccc(CNC(=O)c2cc3cc(OC)ccc3oc2=O)cc1 | inactive: 1.87% |
| Cc1cc(S(=O)(=O)C(CNC(=O)c2ccc(F)c(F)c2)c2cccs2)ccc1F (stereo not given) | inactive: 4.85% |
| Cc1ccc(-n2ncc3c(Nc4cccc(C(=O)O)c4)ncnc32)cc1 | inactive: -0.484% |
| Cc1cccc(/C=C/c2onc(C)c2S(=O)(=O)N2CCC(C(=O)N3CCCCC3)CC2)c1 | inactive: -26.8% |
| CCCCn1cnc2cc(NCc3ccccc3Cl)ccc21 | inactive: -24.8% |
| Cc1ccc(NC(=O)C(=O)NCC(c2cccnc2)N2CCN(Cc3ccccc3)CC2)cc1F (stereo not given) | inactive: -12.1% |
| CCCSCCCNC(=O)C1CCN(c2nc3ccccc3nc2C(F)(F)F)CC1 | inactive: -29.8% |
| Cc1ccc(-c2ccc(=O)n(CC(=O)NCCc3ccccc3)n2)cc1 | inactive: -0.972% |
| O=S(=O)(NCCc1csc2nc(-c3ccccc3)nn12)c1cc(F)ccc1F | inactive: -1.92% |
| COc1cccc(-c2nc(CS(=O)(=O)CC(=O)N3CCN(c4cc(C)ccc4C)CC3)c(C)o2)c1 | inactive: -22.8% |
| CCc1ccc(C2CC(=O)c3c([nH]c(C(=O)OC4CCCC4)c3C)C2)cc1 (stereo not given) | inactive: -6.87% |
| CCOC(=O)c1ccc(CN(Cc2ccc(F)cc2)S(=O)(=O)c2ccc(F)c(C(=O)Nc3c(C)cccc3C)c2)cc1 | inactive: -7.25% |
| COc1ccc(OC)c(C2CC(=O)Nc3c2c(=O)[nH]c2ncnn32)c1 (stereo not given) | inactive: 0.58% |
| COc1ccc(C2NC(=O)N(C)C3=C2C(=O)N(c2ccc(C(=O)O)cc2)C3)cc1 (stereo not given) | inactive: 8.03% |
| CCc1ccccc1NS(=O)(=O)c1ccc2[nH]cc(C(=O)N(CC)Cc3ccccc3)c(=O)c2c1 | inactive: 0.299% |
| CCCc1ccc(OCC(=O)Nc2sc(C(=O)OCC)c(C)c2C(=O)OCC)cc1 | inactive: 13.4% |
| Cc1ccc(C)c(N2CCN(S(=O)(=O)c3ccc4c(c3)C(C(C)C)C(=O)N4)CC2)c1 (stereo not given) | inactive: -5.93% |
| CSc1ncc(C(=O)NCc2ccccc2F)c(-c2ccccc2)n1 | inactive: 1.38% |
| COc1ccc(S(=O)(=O)Nc2c(C)nc3nc[nH]n3c2=O)cc1 | inactive: -0.409% |
